# Substitutions are numbered along the chain they refer to; changes in the protein carry UniProt numbers. The list shows a part of the results.
# B1: UCAAGAA (DNA:RNA)
# RNA: GGGAGACCGGAAUUCAGAUUGUCCUCAAGAAUUAAAUCCCGUCGUAGCCACCA
# DNA 1: CAATCTGAATTCCGGTCTCCC
# DNA 2: TGGTGGCTACGACGGGATT
# B2: CCGAAGG (DNA:RNA)
# RNA: B1 RNA with U25C, A27G, G29A, A30G, A31G
# DNA 1: CAATCTGAATTCCGGTCTCCC
# DNA 2: TGGTGGCTACGACGGGATT
# B3: UGGUUGG (DNA:RNA)
# RNA: B1 RNA with C26G, A27G, A28U, G29U, A30G, A31G
# DNA 1: CAATCTGAATTCCGGTCTCCC
# DNA 2: TGGTGGCTACGACGGGATT
# B4: GACCAAU (DNA:RNA)
# RNA: B1 RNA with U25G, C26A, A27C, A28C, G29A, A31U
# DNA 1: CAATCTGAATTCCGGTCTCCC
# DNA 2: TGGTGGCTACGACGGGATT
# B5: ACUCUGA (DNA:RNA)
# RNA: B1 RNA with U25A, A27U, A28C, G29U, A30G
# DNA 1: CAATCTGAATTCCGGTCTCCC
# DNA 2: TGGTGGCTACGACGGGATT
# B6: GACCUAG (DNA:RNA)
# RNA: B1 RNA with U25G, C26A, A27C, A28C, G29U, A31G
# DNA 1: CAATCTGAATTCCGGTCTCCC
# DNA 2: TGGTGGCTACGACGGGATT
# B7: UAAGGGA (DNA:RNA)
# RNA: B1 RNA with C26A, A28G, A30G
# DNA 1: CAATCTGAATTCCGGTCTCCC
# DNA 2: TGGTGGCTACGACGGGATT
# B8: CUUCUUU (DNA:RNA)
# RNA: GGGAGACCGGAAUUCAGAUUGUCCCUUCUUUUUAAAUCCCGUCGUAGCCACCA
# DNA 1: CAATCTGAATTCCGGTCTCCC
# DNA 2: TGGTGGCTACGACGGGATT
# B9: CUACGCG (DNA:RNA)
# RNA: B8 RNA with U27A, U29G, U30C, U31G
# DNA 1: CAATCTGAATTCCGGTCTCCC
# DNA 2: TGGTGGCTACGACGGGATT
# B10: UCUCCUU (DNA:RNA)
# RNA: B8 RNA with C25U, U26C, U29C
# DNA 1: CAATCTGAATTCCGGTCTCCC
# DNA 2: TGGTGGCTACGACGGGATT
# B11: GUAACCU (DNA:RNA)
# RNA: B8 RNA with C25G, U27A, C28A, U29C, U30C
# DNA 1: CAATCTGAATTCCGGTCTCCC
# DNA 2: TGGTGGCTACGACGGGATT
# B12: CUACGAC (DNA:RNA)
# RNA: B8 RNA with U27A, U29G, U30A, U31C
# DNA 1: CAATCTGAATTCCGGTCTCCC
# DNA 2: TGGTGGCTACGACGGGATT
# B13: UCAGGGC (DNA:RNA)
# RNA: B1 RNA with A28G, A30G, A31C
# DNA 1: CAATCTGAATTCCGGTCTCCC
# DNA 2: TGGTGGCTACGACGGGATT
# B14: CCCGCUG (DNA:RNA)
# RNA: B8 RNA with U26C, U27C, C28G, U29C, U31G
# DNA 1: CAATCTGAATTCCGGTCTCCC
# DNA 2: TGGTGGCTACGACGGGATT
# B15: UAACACG (DNA:RNA)
# RNA: B1 RNA with C26A, A28C, G29A, A30C, A31G
# DNA 1: CAATCTGAATTCCGGTCTCCC
# DNA 2: TGGTGGCTACGACGGGATT
# B16: UAGCAGU (DNA:RNA)
# RNA: B8 RNA with C25U, U26A, U27G, U29A, U30G
# DNA 1: CAATCTGAATTCCGGTCTCCC
# DNA 2: TGGTGGCTACGACGGGATT
# B17: UCGCGAC (DNA:RNA)
# RNA: B1 RNA with A27G, A28C, A31C
# DNA 1: CAATCTGAATTCCGGTCTCCC
# DNA 2: TGGTGGCTACGACGGGATT
# B18: GUGUGUG (DNA:RNA)
# RNA: B8 RNA with C25G, U27G, C28U, U29G, U31G
# DNA 1: CAATCTGAATTCCGGTCTCCC
# DNA 2: TGGTGGCTACGACGGGATT
# B19: AAAUCAG (DNA:RNA)
# RNA: B1 RNA with U25A, C26A, A28U, G29C, A31G
# DNA 1: CAATCTGAATTCCGGTCTCCC
# DNA 2: TGGTGGCTACGACGGGATT
# B20: CAACUUC (DNA:RNA)
# RNA: B8 RNA with U26A, U27A, U31C
# DNA 1: CAATCTGAATTCCGGTCTCCC
# DNA 2: TGGTGGCTACGACGGGATT
# Target: T1, RBFOX1 RRM RbFoxmut (Fox-RRM*) (Homo sapiens, UniProt Q9NWB1 109-208, R118D;E147R;N151S;E152T)
# T1 sequence: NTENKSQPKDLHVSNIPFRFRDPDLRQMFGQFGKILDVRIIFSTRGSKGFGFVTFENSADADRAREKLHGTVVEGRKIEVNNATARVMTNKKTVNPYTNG
# Test: EMSA; HiTS-Eq, 1 nM pool, 10 min; buffer printed only for the single-RNA assays: 10 mM Tris pH 7.5, 150 mM NaCl, 3.4 mM EDTA, 0.001% NP-40, 30 C
# Details: tags: His6 N-terminal (pET28a); label: 5' 32P
# Procedure, shortened: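 Purified RbFox RRM, wild type or mutant, was incubated for 10 min in 50 µL with 1 nM of a 5′-radiolabelled RNA pool carrying 7 randomized nucleotides, whose flanks were annealed to DNA oligonucleotides, over a series of increasing protein concentrations. Unbound RNA was resolved on 8% native PAGE, cut out, reverse-transcribed, barcoded by PCR and sequenced on an Illumina HiSeq 2500. Relative association constants were derived from changes in read counts for each RNA species versus the control reaction and normalised to the cognate motif.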
row,Binder,binding signal
1,B1,0.107 KA relative to UGCAUGU
2,B2,0.0934 KA relative to UGCAUGU
3,B3,0.309 KA relative to UGCAUGU
4,B4,0.0562 KA relative to UGCAUGU
5,B5,0.072 KA relative to UGCAUGU
6,B6,0.103 KA relative to UGCAUGU
7,B7,0.0484 KA relative to UGCAUGU
8,B8,0.0807 KA relative to UGCAUGU
9,B9,0.11 KA relative to UGCAUGU
10,B10,0.0512 KA relative to UGCAUGU
11,B11,0.0824 KA relative to UGCAUGU
12,B12,0.104 KA relative to UGCAUGU
13,B13,0.0778 KA relative to UGCAUGU
14,B14,0.101 KA relative to UGCAUGU
15,B15,0.101 KA relative to UGCAUGU
16,B16,0.0735 KA relative to UGCAUGU
17,B17,0.0616 KA relative to UGCAUGU
18,B18,0.532 KA relative to UGCAUGU
19,B19,0.0659 KA relative to UGCAUGU
20,B20,0.0723 KA relative to UGCAUGU

# Source: article PMC9911399, “Two distinct binding modes provide the RNA-binding protein RbFox with extraordinary sequence specificity”
